Reference: PMC4336329 (PLoS ONE, 2015)
The campaign covered roughly 310,000 compounds. About 2,200 (0.71%) showed an effect of 50% or more. Effects have a minus sign here. Some of the results follow.

These compounds were tested against human ether-à-go-go-related gene (hERG) potassium channel (human, UniProt Q12809) (assay: primary screen, population patch clamp on CHO cells stably expressing hERG).
Chain of human ether-à-go-go-related gene (hERG) potassium channel (Q12809 whole entry, looked up): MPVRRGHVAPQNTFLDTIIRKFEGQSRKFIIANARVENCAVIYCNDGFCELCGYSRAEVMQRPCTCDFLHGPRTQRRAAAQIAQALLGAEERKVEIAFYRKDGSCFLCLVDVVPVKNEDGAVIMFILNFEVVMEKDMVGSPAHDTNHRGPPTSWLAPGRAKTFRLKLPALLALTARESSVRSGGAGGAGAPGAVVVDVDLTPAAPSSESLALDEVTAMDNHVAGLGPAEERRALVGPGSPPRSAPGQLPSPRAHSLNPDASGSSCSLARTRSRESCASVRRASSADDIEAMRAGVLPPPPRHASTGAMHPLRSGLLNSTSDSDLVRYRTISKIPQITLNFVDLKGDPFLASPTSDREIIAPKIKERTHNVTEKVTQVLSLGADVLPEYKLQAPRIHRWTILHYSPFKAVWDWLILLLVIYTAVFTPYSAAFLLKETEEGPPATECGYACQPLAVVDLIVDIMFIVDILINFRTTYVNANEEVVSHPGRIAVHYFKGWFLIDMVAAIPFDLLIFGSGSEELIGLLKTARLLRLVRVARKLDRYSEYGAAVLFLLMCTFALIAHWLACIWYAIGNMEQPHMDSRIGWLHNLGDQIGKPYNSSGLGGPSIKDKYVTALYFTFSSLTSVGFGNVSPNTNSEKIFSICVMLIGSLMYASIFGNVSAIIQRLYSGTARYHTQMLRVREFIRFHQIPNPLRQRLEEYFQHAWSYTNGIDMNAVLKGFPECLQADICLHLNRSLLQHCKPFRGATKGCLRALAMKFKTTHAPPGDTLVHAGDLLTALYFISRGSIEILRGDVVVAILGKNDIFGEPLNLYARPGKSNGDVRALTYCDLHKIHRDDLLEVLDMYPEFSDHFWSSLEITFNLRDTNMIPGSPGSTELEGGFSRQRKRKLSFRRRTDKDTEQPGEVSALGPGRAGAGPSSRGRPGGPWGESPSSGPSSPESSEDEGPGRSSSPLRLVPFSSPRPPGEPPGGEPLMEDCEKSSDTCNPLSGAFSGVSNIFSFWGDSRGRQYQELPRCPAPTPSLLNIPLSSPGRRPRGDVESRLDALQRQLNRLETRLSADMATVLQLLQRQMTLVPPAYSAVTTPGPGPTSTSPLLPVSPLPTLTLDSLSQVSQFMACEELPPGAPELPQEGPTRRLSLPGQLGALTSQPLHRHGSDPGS

Going from `COc1cc(C(=O)N(Cc2ccco2)Cc2cc3ccccc3[nH]c2=O)cc(OC)c1OC` to `COc1ccc(C(=O)N(C)c2c(C)n(C)n(-c3ccccc3)c2=O)cc1OC`, the “hERG current change (%, negative = inhibition) at 1uM” value rises from -13.8% to 15.8%.

First: O=S(=O)(Nc1ncccn1)c1ccc(NS(=O)(=O)c2cc(Cl)ccc2Cl)cc1
Second: CC(C(=O)NCCS(=O)(=O)c1ccc(Cl)cc1)S(=O)(=O)c1ccccc1 (centres unmarked)
The “hERG current change (%, negative = inhibition) at 1uM” value of the first is higher: 16.1% for the first, 6.53% for the second.

Going from `O=C(CCCSc1nc2ccccc2[nH]1)NC1=NCCS1` to `COc1ccc2nc(NC(=O)CSc3cn[nH]n3)sc2c1`, the “hERG current change (%, negative = inhibition) at 1uM” value rises from 0.776% to 10.4%.

First: Cc1ccc2c(c1)/C(=N/OS(=O)(=O)c1ccccc1)CCS2
Second: COc1ccc(S(=O)(=O)Cc2ccccc2)cc1N
The “hERG current change (%, negative = inhibition) at 1uM” value of the first is higher: 8.57% for the first, -13.3% for the second.

Going from `O=C(c1cnc(-c2ccccc2)s1)c1ccc(Cl)cc1Cl` to `O=c1o[nH]c(-c2ccccc2)c1C=Nc1ccc(Cl)cc1`, the “hERG current change (%, negative = inhibition) at 1uM” value rises from -9.62% to 1.88%.

First: CC1(C)CC(=O)C2=C(C1)OC(N)=C(C#N)C21CCC2(CC1)OCCO2
Second: N#CC1=C(N)C(C#N)(C#N)[C@H](c2ccncc2)[C@H]2CC3(CC=C12)OCCO3
The “hERG current change (%, negative = inhibition) at 1uM” value of the first is higher: 13.9% for the first, 7.56% for the second.

First: Cc1ccc(COc2ccsc2C(=O)NNC(N)=S)cc1
Second: COc1ccc(CNC(=O)Nc2ccc([N+](=O)[O-])cc2)cc1
The “hERG current change (%, negative = inhibition) at 1uM” value of the first is higher: 22.3% for the first, 9.43% for the second.

Compared with `O=C(c1cc2sccc2n1Cc1ccccc1)N1CCc2ccccc21`, `Cc1cn(C(=O)c2ccccc2)c(=S)n1-c1ccc(Cl)cc1` is lower in “hERG current change (%, negative = inhibition) at 1uM” value: 4.57% for the first, -0.802% for the second.

Going from `COCCNC(=O)C(c1cccs1)N(C(=O)Cn1nnc2ccccc21)c1cccc(C(C)=O)c1` (centres unmarked) to `CCCCCn1c(NC(=O)c2ccco2)c(C(=O)OCC)c2nc3ccccc3nc21`, the “hERG current change (%, negative = inhibition) at 1uM” value falls from 12.4% to -73.9%.

Compared with `CC(=O)N1CCc2c(sc(NC(=O)CS(=O)(=O)c3ccc(F)cc3)c2C#N)C1`, `O=C(c1ccco1)N1CCN(S(=O)(=O)c2ccc(F)cc2)CC1` is lower in “hERG current change (%, negative = inhibition) at 1uM” value: 12.5% for the first, 3.68% for the second.

Going from `O=C(COc1cccc2ccccc12)NNC(=O)Nc1ccccc1` to `O=C(NNC(=O)C1CC1c1ccccc1)Nc1ccccc1` (centres unmarked), the “hERG current change (%, negative = inhibition) at 1uM” value falls from 10.6% to 5.96%.

Compared with `CNC(=O)COc1ccc(S(=O)(=O)N2CCCC2)cc1`, `Cc1ccc(NC(=O)c2cc(S(=O)(=O)N3CCCC3)c[nH]2)c(C)c1` is lower in “hERG current change (%, negative = inhibition) at 1uM” value: 18.1% for the first, -1.21% for the second.

First: Cn1c(=O)c2c(nc(CN3CCN(C(=O)c4ccco4)CC3)n2Cc2ccccc2F)n(C)c1=O
Second: Cc1ccc(-c2ccc(=O)n(CC(=O)Nc3cccc(C(=O)N4CCN(C)CC4)c3)n2)cc1
The “hERG current change (%, negative = inhibition) at 1uM” value of the first is higher: 0.716% for the first, -3.61% for the second.

First: O=C(Nc1ccc2c(c1)OCCO2)C1CCC1
Second: CC1Cc2cc(S(=O)(=O)N3CCCCC3)ccc2N1C(=O)C1CCC1 (centres unmarked)
The “hERG current change (%, negative = inhibition) at 1uM” value of the first is lower: 5.56% for the first, 12% for the second.

First: COc1cccc(-c2nn(C)c3sc(C(=O)NCc4ccccn4)cc23)c1
Second: COC(=O)c1cn(NC(=O)/C=C/c2cc(OC)ccc2OC)c(=O)c2ccccc12
The “hERG current change (%, negative = inhibition) at 1uM” value of the first is higher: 12.7% for the first, 8.24% for the second.

Compared with `Cc1ccc(SCCC(=O)N/N=C/c2cccnc2)cc1`, `Cc1cccc(NC(=S)N/N=C/c2c[nH]c3ccccc23)c1` is higher in “hERG current change (%, negative = inhibition) at 1uM” value: 10.8% for the first, 12.3% for the second.

Going from `COC(C[C@H](O)C[C@H](O)[C@@H](C)OCc1ccccc1)OC` to `COCCN1C=C2C(=O)C(C)(OC(=O)CCc3ccccc3)C(=O)C=C2C=C1c1ccc(C#N)cc1` (centres unmarked), the “hERG current change (%, negative = inhibition) at 1uM” value falls from 20.9% to -23.7%.

Going from `COc1ccccc1CNC(=O)C1CC2Cn3c(nc4cc(Cl)c(Cl)cc43)C2N1C` (centres unmarked) to `COc1ccc(CCn2c(=S)[nH]c3cc(C(=O)N4CCOCC4)ccc3c2=O)cc1OC`, the “hERG current change (%, negative = inhibition) at 1uM” value rises from -24% to 8.02%.

Compared with `O=c1oc(-c2ccccc2)nc2sc3c(c12)CCCC3`, `COc1ccc(-n2c(-c3ccccc3)nc(=S)c3c2CCCC3)cc1` is lower in “hERG current change (%, negative = inhibition) at 1uM” value: 18.5% for the first, 3.27% for the second.

Compared with `CCC(C)[C@H](NC(=O)N1CC(=O)Nc2ccccc21)C(=O)N1CCC[C@@H]1C(=O)O` (some centres unmarked), `O=C(Cc1ccc(Cl)cc1)Nc1ccccc1N1CCOCC1` is lower in “hERG current change (%, negative = inhibition) at 1uM” value: 19.3% for the first, 7.35% for the second.

Compared with `COC(=O)c1ccc(-c2ccc(/C=N/N3C(=O)C4C5C=CC(C6CC56)C4C3=O)o2)cc1` (centres unmarked), `COn1c(=O)c(-c2ccc(Cl)cc2)[n+]([O-])c2ccccc21` is higher in “hERG current change (%, negative = inhibition) at 1uM” value: 3.68% for the first, 7.2% for the second.

Compared with `COCCNC(=O)c1ccc(CS(=O)(=O)c2cccc(C(F)(F)F)c2)o1`, `CCCCn1c(=O)c(C(=O)NCc2ccco2)c(O)c2ccccc21` is higher in “hERG current change (%, negative = inhibition) at 1uM” value: 10.5% for the first, 11.7% for the second.

First: c1ccc(-c2nnc3ccc(N4CCC5(CC4)OCCO5)nn23)cc1
Second: O=C(c1cnc(N2CCN(c3ncccn3)CC2)c2ccccc12)N1CCN(c2ccccn2)CC1
The “hERG current change (%, negative = inhibition) at 1uM” value of the first is lower: -14.2% for the first, 0.591% for the second.

Going from `COc1ccc(Br)cc1S(=O)(=O)n1ccnc1` to `Nc1cccc(S(=O)(=O)NC2=NCCC2)c1`, the “hERG current change (%, negative = inhibition) at 1uM” value falls from 14.9% to 13.4%.

Going from `NS(=O)(=O)c1cc(Cl)c(Cl)c(S(N)(=O)=O)c1` to `COc1ccc(OCc2cc(C(=O)N(C)Cc3cc(C)no3)no2)c(Cl)c1`, the “hERG current change (%, negative = inhibition) at 1uM” value rises from 2.94% to 27.2%.

Going from `COc1ccc(N2CCN(CC(=O)Nc3ccc(SC(F)F)cc3)CC2)cc1` to `NC(=O)COC(=O)c1ccccc1Nc1ccc(SC(F)F)cc1`, the “hERG current change (%, negative = inhibition) at 1uM” value rises from -35.8% to 0.762%.

Compared with `Cc1nnc(SCC(=O)N2CCCCCC2)n(N)c1=O`, `CCCCN(CC)C(=O)C1CCC(CNS(=O)(=O)c2cccc3nsnc23)CC1` (centres unmarked) is lower in “hERG current change (%, negative = inhibition) at 1uM” value: 14.5% for the first, 14.1% for the second.

Going from `Cn1c(-c2cnn(-c3ccccc3)c2N)n[nH]c1=S` to `CCOC(=O)c1cc(CC)sc1NC(=O)CN1C(=O)C(=O)N(CC(C)C)C1=O`, the “hERG current change (%, negative = inhibition) at 1uM” value falls from 7.5% to -0.515%.
